{"source": "PubChem BioAssay AID504832", "about": "(National Center for Advancing Translational Sciences (NCATS), 2011)", "note": "Out of some 310,000 compounds screened, about 18,000 (5.8%) were called active. Inconclusive means that the source gave no clear call. Such entries were picked first, then a sample of the others. Calls follow the shape of the dose curve; as a rule, active = well fitted inhibition curve with a large enough effect; inconclusive = small, poorly fitted or top-dose-only effect, or another doubt; inactive = no such curve, though single readings can be large or run the other way. No potency is given beside an inconclusive call; the fits are too rough. % is scaled to controls: 0 for no effect and ±100 for the full control effect; potency is read from the fitted curve at half-maximal effect; tags tell the direction and shape of the fitted curve.", "data": [{"assay": "Primary qHTS for delayed death inhibitors of the malarial parasite plastid, 48 hour incubation", "details": "P. falciparum luciferase growth in erythrocytes; series mostly up to 28.7 µM; activity change, negative = inhibition: at the top concentration", "how_it_was_run": "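Read-out is firefly luciferase luminescence from an integrated reporter in P. falciparum, so falling signal marks reduced parasite growth. Infected erythrocytes were at 2% hematocrit and 0.1% parasitemia (final) in Albumax-supplemented RPMI 1640.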", "values": [{"compound": "C=CCn1c(SCC#N)nnc1-c1ccc2ncccc2c1", "Potency": "inconclusive [inhibitor, single point]"}, {"compound": "CNS(=O)(=O)c1cccc(C(=O)NCC(c2ccco2)N(C)C)c1", "note": "(stereo not drawn)", "activity change, negative = inhibition": "inactive: 4.27%"}, {"compound": "Cc1cccc2nc(CNC(=O)CC3C(=O)NCCN3Cc3cccc(F)c3)cn12", "note": "(stereo not drawn)", "activity change, negative = inhibition": "inactive: 15.6%"}, {"compound": "COc1ccc(C(CNC(=O)C2CCN(S(=O)(=O)c3ccc(F)cc3)CC2)N(C)C)cc1", "note": "(stereo not drawn)", "activity change, negative = inhibition": "inactive: -1.77%"}, {"compound": "Nc1c(C(=O)NCCc2ccccc2)c2nc3ccccc3nc2n1CCN1CCOCC1", "Potency": "inconclusive [inhibitor, single point]"}, {"compound": "O=C(Nc1ccccc1Oc1ccccc1)c1cc([N+](=O)[O-])ccc1Cl", "Potency": "inconclusive [inhibitor, single point]"}, {"compound": "O=C(NCc1ccc(F)cc1)C1CCCN(c2nc3ccsc3c(=O)s2)C1", "note": "(stereo not drawn)", "Potency": "inconclusive [inhibitor, single point]"}, {"compound": "CN(C)C1=NC[C@H](Cc2ccccc2)N1CCCCc1ccccc1", "Potency": "active: 13.1 µM"}, {"compound": "COC(=O)CSc1nnc([C@H](Cc2ccccc2)NC(=O)OC(C)(C)C)o1", "Potency": "inconclusive [inhibitor, single point]"}, {"compound": "CCOC(=O)c1ccc(NC(=O)Nc2ccc3c(c2)OCCO3)cc1", "Potency": "inconclusive [inhibitor, partial curve, poor fit]"}, {"compound": "COc1ccc(CCNC(=S)NC(=O)c2cccc([N+](=O)[O-])c2)cc1OC", "activity change, negative = inhibition": "inactive: 44.6%"}, {"compound": "COc1ccccc1N(Cc1ccccc1)S(=O)(=O)c1cccc(C(=O)NCC2CCCO2)c1", "note": "(stereo not drawn)", "Potency": "inconclusive [inhibitor, partial curve, poor fit]"}, {"compound": "CC(=O)N1CCN(C(=O)COc2ccc3oc4c(c3c2)CCCC4)CC1", "activity change, negative = inhibition": "inactive: -0.644%"}, {"compound": "O=C(CSc1nc2nn(-c3ccccc3)c(=O)c-2c2n1CCCCC2)c1ccc(O)c(O)c1", "Potency": "active: 9.28 µM"}, {"compound": "O=C(Nc1ccccc1)Nc1nnc(-c2cccs2)s1", "activity change, negative = inhibition": "inactive: 118%"}, {"compound": "C#CCNC(=O)C1=C[C@H](c2ccc3c(c2)OCO3)C[C@H](OCc2ccc(CO)cc2)O1", "Potency": "inconclusive [inhibitor, partial curve, poor fit]"}, {"compound": "Cc1nn(C)c(C)c1CN(C)C(=O)c1cc2nc(-c3ccco3)cc(C(F)(F)F)n2n1", "Potency": "inconclusive [inhibitor, single point]"}, {"compound": "COc1ccc(N(CC(=O)Nc2ccc(S(=O)(=O)N3CCCC3)cc2)S(C)(=O)=O)cc1OC", "Potency": "inconclusive [inhibitor, partial curve, poor fit]"}, {"compound": "N/C(Cc1nc(-c2ccc(F)cc2)cs1)=N\\O", "activity change, negative = inhibition": "inactive: 123%"}, {"compound": "CCOc1ccc(NS(=O)(=O)c2ccc(C(=O)N(C)CC(=O)Nc3ccc(C)cc3)cc2)cc1", "Potency": "inconclusive [inhibitor, single point]"}, {"compound": "COCCCNCCOCCOc1c(OC)cccc1OC", "Potency": "inconclusive [inhibitor, full curve, poor fit]"}, {"compound": "O=C(CCNC(=O)c1ccco1)Nc1ccc(C(F)(F)F)cc1", "activity change, negative = inhibition": "inactive: 2.88%"}, {"compound": "Cn1cc(C=O)c(-c2ccc3c(c2)OCCCO3)n1", "activity change, negative = inhibition": "inactive: 5.74%"}, {"compound": "CN(C)C1=NC[C@H](Cc2ccccc2)N1CC1CCCCC1", "Potency": "inconclusive [inhibitor, partial curve, poor fit]"}, {"compound": "CCC1Oc2ccc(C)cc2N(CC(=O)N(Cc2ccncc2)Cc2ccco2)C1=O", "note": "(stereo not drawn)", "Potency": "active: 11.7 µM"}, {"compound": "COCC(=O)NCCc1nc(-c2ccccc2)cs1", "activity change, negative = inhibition": "inactive: 8.69%"}, {"compound": "COCCCn1c2nc3ccccc3nc2c2c(=O)n(Cc3ccc(Cl)cc3)cnc21", "Potency": "inconclusive [inhibitor, partial curve, poor fit]"}, {"compound": "O=C(NCc1ccc(-c2nc3ccccc3s2)cc1)c1ccc(Br)o1", "activity change, negative = inhibition": "inactive: 35.5%"}, {"compound": "Cc1ccc(C(=O)Nc2ccccc2Oc2ccccc2)cc1[N+](=O)[O-]", "Potency": "inconclusive [inhibitor, single point]"}, {"compound": "CCc1ccc(CN(C)C(=O)c2cc(COc3cccc(C(F)(F)F)c3)on2)nc1", "Potency": "inconclusive [inhibitor, single point]"}, {"compound": "O=C(CN1CCc2ccccc2C1)Nc1cc(S(=O)(=O)N2CCOCC2)ccc1N1CCCC1", "Potency": "inconclusive [inhibitor, partial curve, poor fit]"}, {"compound": "COc1ccc(CC(=O)N(C)CC(=O)Nc2ccc(F)cc2)cc1S(=O)(=O)N1CCOCC1", "Potency": "inconclusive [inhibitor, single point]"}, {"compound": "O=C(COC(=O)/C=C/c1cccc(C(F)(F)F)c1)NCCN1C(=O)CSC1=O", "activity change, negative = inhibition": "inactive: -17%"}, {"compound": "CC(C)Oc1cccc(NC(=O)c2cccn(Cc3ccc4c(c3)OC(F)(F)O4)c2=O)c1", "Potency": "inconclusive [inhibitor, single point]"}, {"compound": "CC[C@H](NC(=O)c1c(C)c(-c2ccccc2)nc2ccccc12)c1ccccc1", "Potency": "inconclusive [inhibitor, partial curve]"}, {"compound": "CCn1ncc2c1C(=O)NC1c3ccccc3C(=O)N21", "note": "(stereo not drawn)", "Potency": "inconclusive [inhibitor, single point]"}, {"compound": "Nc1c(N(Cc2ccco2)C(=O)c2ccccc2F)c(=O)[nH]c(=O)n1Cc1ccccc1", "Potency": "inconclusive [inhibitor, single point]"}, {"compound": "CC(=O)c1cccc(-n2c(CCC(=O)O)ccc2-c2cccs2)c1", "Potency": "inconclusive [inhibitor, partial curve, poor fit]"}, {"compound": "COc1ccc(-c2cc3cc(C(=O)O)ccn3c2C(=O)c2ccccc2)cc1", "Potency": "inconclusive [inhibitor, full curve, poor fit]"}, {"compound": "CC(C)COP(=O)(c1ccc(N(C)C)cc1)C(Nc1ccccc1)c1ccccc1", "note": "(stereo not drawn)", "Potency": "inconclusive [inhibitor, single point]"}, {"compound": "CCOC(=O)c1[nH]c2ccc(OCC)cc2c1NC(=O)CN1CCN(c2ccccn2)CC1", "Potency": "active: 7.38 µM"}, {"compound": "COc1ccc2c(c1)oc(=O)c1c3ccccc3[nH]c21", "Potency": "inconclusive [inhibitor, full curve, poor fit]"}, {"compound": "O=C(O)c1cc(N2C(=O)CCC2=O)ccc1Cl", "activity change, negative = inhibition": "inactive: 6.07%"}, {"compound": "O=C(N/N=C/c1ccc(Br)s1)c1cccc([N+](=O)[O-])c1", "Potency": "active: 2.94 µM"}, {"compound": "COc1ccc(CCNC(=O)c2cc(S(=O)(=O)N3CCOCC3)ccc2N2CCCC2)cc1OC", "Potency": "inconclusive [inhibitor, single point]"}, {"compound": "CC(C)N(C(=O)CC1ON(C)C(=O)N1c1ccc(Cl)cc1)C(C)C", "note": "(stereo not drawn)", "Potency": "inconclusive [inhibitor, full curve, poor fit]"}, {"compound": "CC(C)(C)NC(=O)c1ccc(COc2ccc(Cl)cc2Cl)o1", "activity change, negative = inhibition": "inactive: -9.62% [at 0.00184 µM]"}, {"compound": "O=C(NCC(c1cccs1)N1CCOCC1)c1cn(-c2ccccc2)nc1-c1ccc(F)cc1", "note": "(stereo not drawn)", "Potency": "inconclusive [inhibitor, single point]"}, {"compound": "O=C(O)c1ccnc2c(O)cccc12", "Potency": "inconclusive [inhibitor, single point]"}, {"compound": "CCOc1nc(-c2ccc(OC)cc2)ccc1-c1noc(C)n1", "Potency": "inconclusive [inhibitor, single point]"}, {"compound": "CCc1nnc(NC(=O)Cc2cc(OC)c(OC)c(OC)c2)s1", "Potency": "inconclusive [inhibitor, single point]"}, {"compound": "CN(C)N1C(N)=C(C#N)C(c2ccsc2)C2=C1CCCC2=O", "note": "(stereo not drawn)", "Potency": "inconclusive [inhibitor, partial curve]"}, {"compound": "Oc1ccc(N=Nc2nc(-c3ccccc3)c(-c3ccccc3)[nH]2)cc1", "Potency": "inconclusive [inhibitor, single point]"}, {"compound": "Cc1cc(C)cc(NC(=O)C2CCN(S(=O)(=O)c3c(C)n[nH]c3C)CC2)c1", "activity change, negative = inhibition": "inactive: 7.77%"}, {"compound": "Cc1ccc(C)c(S(=O)(=O)N2CCCOC2CNC(=O)C(=O)NCc2cccnc2)c1", "note": "(stereo not drawn)", "Potency": "inconclusive [inhibitor, full curve, poor fit]"}, {"compound": "CCOC(=O)C1(CCOC)CCN(C(=O)Cc2ccc3ccccc3c2)CC1", "activity change, negative = inhibition": "inactive: -16.4%"}, {"compound": "Cc1ccc(-n2nc3c(=O)n(CCCC(=O)NCc4ccco4)nc(C)c3c2C)cc1", "Potency": "active: 11.7 µM"}, {"compound": "C=CCNC(=S)NNC(=O)COc1ccc2cc(Br)ccc2c1", "activity change, negative = inhibition": "inactive: 68%"}, {"compound": "CC(C)CCCN1CCN=C1Nc1ccccc1", "Potency": "inconclusive [inhibitor, partial curve, poor fit]"}, {"compound": "CNc1nc(-c2ccc3c(c2)CCN3C(=O)c2ccccc2F)cs1", "Potency": "inconclusive [inhibitor, single point]"}, {"compound": "O=C(Nc1cccc(C(F)(F)F)c1)Oc1ccc(Cl)c2cccnc12", "Potency": "active: 2.62 µM"}, {"compound": "O=C(C(Cc1ccccc1)N1C(=O)c2ccccc2C1=O)N1CCc2ccccc21", "note": "(stereo not drawn)", "Potency": "active: 14.7 µM"}, {"compound": "Cc1cccc(-n2cc(-c3ccccc3)[nH]c2=S)c1", "Potency": "inconclusive [inhibitor, single point]"}, {"compound": "CC(=O)N1CCN(Cc2nc3scc(-c4ccccc4)c3c(=O)[nH]2)CC1", "Potency": "inconclusive [inhibitor, full curve, poor fit]"}, {"compound": "Cc1csc(SC(C)C(=O)Nc2ccccc2C)n1", "note": "(stereo not drawn)", "activity change, negative = inhibition": "inactive: -14.3%"}, {"compound": "CCCCNC(=O)CSc1nc2ccc(Nc3nc(N4CCOCC4)nc(N4CCOCC4)n3)cc2s1", "Potency": "inconclusive [inhibitor, partial curve, poor fit]"}, {"compound": "CC(C)(C)c1ccc(C(=O)NCCCn2ccnc2)cc1", "Potency": "inconclusive [inhibitor, full curve, poor fit]"}, {"compound": "CCN(c1ccc(OC)cc1)S(=O)(=O)c1cc(-c2cc(C)no2)ccc1OC", "Potency": "inconclusive [inhibitor, partial curve, poor fit]"}]}]}
